Experimental data: patent publication US20240400644A1 (ACROIMMUNE GUANGZHOU BIOTECH, published 2024)

Legend:
[1] = target: T1, biotinylated human Siglec10 (His- and Avi-tagged) (human, UniProt Q96LC7 17-546, limits assumed, biotinylated (Avi tag)); assay: BLI
T1 construct: Bought, HEK293 cell derived; immobilised on streptavidin biosensors; also called AcroBiosystems SIO-H82E3; not shown: His tag and Avi tag
T1 sequence (looked up): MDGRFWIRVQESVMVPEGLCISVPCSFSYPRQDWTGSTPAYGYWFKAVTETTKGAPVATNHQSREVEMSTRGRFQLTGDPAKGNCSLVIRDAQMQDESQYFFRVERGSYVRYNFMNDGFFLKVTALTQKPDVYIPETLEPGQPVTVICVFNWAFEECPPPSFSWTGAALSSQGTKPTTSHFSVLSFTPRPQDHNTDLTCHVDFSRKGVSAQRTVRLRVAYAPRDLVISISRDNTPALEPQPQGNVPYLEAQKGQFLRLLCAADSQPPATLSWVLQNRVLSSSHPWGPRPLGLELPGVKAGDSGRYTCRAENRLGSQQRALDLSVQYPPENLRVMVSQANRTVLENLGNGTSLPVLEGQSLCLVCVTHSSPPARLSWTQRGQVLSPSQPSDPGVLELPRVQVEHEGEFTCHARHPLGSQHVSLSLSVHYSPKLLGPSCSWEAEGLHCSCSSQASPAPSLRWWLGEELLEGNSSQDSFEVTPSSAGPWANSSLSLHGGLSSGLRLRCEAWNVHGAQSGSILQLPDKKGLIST
Protocol: (§1) A Fortebio based biolayer interferometry assay (BLI) was used to further analyze the binding kinetics of AI-07 fusion protein to human Siglec10. For this propose, streptavidin-coated biosensor tubes (Sartoris Octet SA biosensors, Cat. 18-0009) were incubated with biotinylated human Siglec10 (AcroBiosystems, HEK293 cell derived, His- and Avi-tagged, SIO-H82E3) at 2 μg/mL in binding buffer (1×PBS with 1 mM MgCl2, 3 mM CaCl2) at room temperature for 10 mins. After balanced with binding buffer, analytes of different concentrations of AI-071 or human IgG-Fc control protein were loaded into individual biosensor tube and the binding kinetic curves (association and dis-association) were recorded in Fortebio-BLITZ instrument.

[2] = target: T1, biotinylated human Siglec10 (His- and …); assay: BLI (Fortebio BLITZ), biotinylated Siglec10 on streptavidin sensors
Protocol: as §1

[3] = target: T2, human Siglec-1 Fc fusion protein (human, UniProt Q9BZZ2 20-1641, limits assumed); assay: ELISA: Siglec-Fc coated at 0.2 µg/mL, biotin-labeled AI-071 titrated 2-fold, avidin-HRP
T2 construct: Recombinant IgG-Fc fusion, coated at 0.2 µg/mL; not shown: IgG-Fc
T2 sequence (Q9BZZ2 20-1641 limits assumed): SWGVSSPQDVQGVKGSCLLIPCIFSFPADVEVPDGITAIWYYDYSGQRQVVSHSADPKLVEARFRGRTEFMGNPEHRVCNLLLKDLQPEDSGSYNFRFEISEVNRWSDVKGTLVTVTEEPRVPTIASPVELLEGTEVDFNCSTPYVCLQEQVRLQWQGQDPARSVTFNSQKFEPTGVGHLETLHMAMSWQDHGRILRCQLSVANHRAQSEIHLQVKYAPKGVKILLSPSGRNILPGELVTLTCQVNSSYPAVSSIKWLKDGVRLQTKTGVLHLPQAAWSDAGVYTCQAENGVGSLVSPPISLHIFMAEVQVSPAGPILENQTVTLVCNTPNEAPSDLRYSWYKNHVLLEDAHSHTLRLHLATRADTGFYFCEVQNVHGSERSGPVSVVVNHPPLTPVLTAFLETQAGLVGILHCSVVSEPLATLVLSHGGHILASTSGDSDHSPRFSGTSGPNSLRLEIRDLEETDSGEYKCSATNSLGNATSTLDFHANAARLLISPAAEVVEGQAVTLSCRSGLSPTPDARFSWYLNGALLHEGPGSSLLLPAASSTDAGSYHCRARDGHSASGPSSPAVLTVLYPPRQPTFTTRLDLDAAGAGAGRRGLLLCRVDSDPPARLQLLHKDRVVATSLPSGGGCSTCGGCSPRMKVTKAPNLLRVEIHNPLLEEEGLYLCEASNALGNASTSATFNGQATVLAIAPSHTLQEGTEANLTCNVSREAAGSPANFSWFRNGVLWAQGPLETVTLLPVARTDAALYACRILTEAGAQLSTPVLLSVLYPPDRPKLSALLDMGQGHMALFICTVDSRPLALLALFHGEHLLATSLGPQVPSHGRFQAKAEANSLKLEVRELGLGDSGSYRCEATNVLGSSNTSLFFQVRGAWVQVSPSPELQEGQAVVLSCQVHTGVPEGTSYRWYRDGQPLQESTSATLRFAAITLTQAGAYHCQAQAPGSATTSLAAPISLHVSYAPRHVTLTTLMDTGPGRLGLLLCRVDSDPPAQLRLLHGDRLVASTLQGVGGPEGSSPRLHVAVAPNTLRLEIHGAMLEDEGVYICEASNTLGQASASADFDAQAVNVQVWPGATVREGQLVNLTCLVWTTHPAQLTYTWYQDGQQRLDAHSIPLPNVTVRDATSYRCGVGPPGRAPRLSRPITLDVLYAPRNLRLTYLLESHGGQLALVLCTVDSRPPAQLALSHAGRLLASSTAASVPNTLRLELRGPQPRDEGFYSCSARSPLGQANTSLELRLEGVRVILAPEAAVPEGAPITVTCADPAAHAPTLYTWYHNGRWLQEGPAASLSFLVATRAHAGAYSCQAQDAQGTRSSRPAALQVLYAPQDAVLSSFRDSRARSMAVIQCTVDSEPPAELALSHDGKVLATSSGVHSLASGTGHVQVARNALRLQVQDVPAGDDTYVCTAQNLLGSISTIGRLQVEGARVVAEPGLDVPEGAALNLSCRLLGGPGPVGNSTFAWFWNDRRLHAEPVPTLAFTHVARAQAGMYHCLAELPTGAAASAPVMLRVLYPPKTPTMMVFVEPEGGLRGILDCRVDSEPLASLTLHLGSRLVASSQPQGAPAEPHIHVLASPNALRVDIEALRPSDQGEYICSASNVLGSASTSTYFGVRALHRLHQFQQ
Protocol: (§2) Briefly, 2-fold dilutions of biotin-labeled AI-071 fusion protein were added into 96-well plated coated with indicated Siglec-Fc fusion proteins (all coating at 0.2 μg/mL), the amount of bound AI-071 protein was then detected by adding Avidin-HRP and OPD.
(§3) To evaluate the spectrum of Siglecs that binds to AI-071, recombinant IgG-Fc fusion protein containing one of the human siglec family members (Siglec-1, 2, 3, 4a, 5, 6, 7, 8, 9, 11, 14 and 15) were coated in 96-well plates and their binding to biotin-labeled AI-071 protein was detected in ELISA. The representative ELISA results are shown in FIG. 4B (Siglec-1, 2, 3, 4a, 5 and 6) and FIG. 4C (Siglec-7, 8, 9, 11, 14 and 15).

[4] = target: T3, human Siglec-8 Fc fusion protein (human, UniProt Q9NYZ4 17-363, limits assumed); assay: as above
T3 construct: Recombinant IgG-Fc fusion, coated at 0.2 µg/mL; not shown: IgG-Fc
T3 sequence (Q9NYZ4 17-363 limits assumed): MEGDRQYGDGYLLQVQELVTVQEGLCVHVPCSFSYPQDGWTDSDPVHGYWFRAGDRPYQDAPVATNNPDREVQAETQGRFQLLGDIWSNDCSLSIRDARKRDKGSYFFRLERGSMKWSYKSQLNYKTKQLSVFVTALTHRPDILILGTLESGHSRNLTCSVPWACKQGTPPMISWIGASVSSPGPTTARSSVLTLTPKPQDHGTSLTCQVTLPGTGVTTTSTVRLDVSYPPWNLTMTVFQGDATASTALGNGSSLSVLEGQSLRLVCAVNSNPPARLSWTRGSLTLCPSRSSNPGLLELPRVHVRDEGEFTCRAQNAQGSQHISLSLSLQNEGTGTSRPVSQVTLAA
Protocol: as §2, §3

[5] = target: T4, human Siglec-6 Fc fusion protein (human, UniProt O43699 27-347, limits assumed); assay: as above
T4 construct: Recombinant IgG-Fc fusion, coated at 0.2 µg/mL; not shown: IgG-Fc
T4 sequence (O43699 27-347 limits assumed): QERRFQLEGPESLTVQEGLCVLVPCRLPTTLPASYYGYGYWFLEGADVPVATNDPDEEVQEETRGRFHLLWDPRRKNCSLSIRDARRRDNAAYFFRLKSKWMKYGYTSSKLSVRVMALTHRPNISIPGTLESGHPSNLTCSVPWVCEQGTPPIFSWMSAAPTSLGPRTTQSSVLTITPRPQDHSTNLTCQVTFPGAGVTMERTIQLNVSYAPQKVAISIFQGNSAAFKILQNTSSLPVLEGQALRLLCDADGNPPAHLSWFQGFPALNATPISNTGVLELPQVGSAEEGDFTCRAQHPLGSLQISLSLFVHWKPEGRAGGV
Protocol: as §2, §3

[6] = target: T5, human Siglec-4A Fc fusion protein (human, UniProt P20916 20-516, limits assumed); assay: as above
T5 construct: Recombinant IgG-Fc fusion, coated at 0.2 µg/mL; not shown: IgG-Fc
T5 sequence (looked up): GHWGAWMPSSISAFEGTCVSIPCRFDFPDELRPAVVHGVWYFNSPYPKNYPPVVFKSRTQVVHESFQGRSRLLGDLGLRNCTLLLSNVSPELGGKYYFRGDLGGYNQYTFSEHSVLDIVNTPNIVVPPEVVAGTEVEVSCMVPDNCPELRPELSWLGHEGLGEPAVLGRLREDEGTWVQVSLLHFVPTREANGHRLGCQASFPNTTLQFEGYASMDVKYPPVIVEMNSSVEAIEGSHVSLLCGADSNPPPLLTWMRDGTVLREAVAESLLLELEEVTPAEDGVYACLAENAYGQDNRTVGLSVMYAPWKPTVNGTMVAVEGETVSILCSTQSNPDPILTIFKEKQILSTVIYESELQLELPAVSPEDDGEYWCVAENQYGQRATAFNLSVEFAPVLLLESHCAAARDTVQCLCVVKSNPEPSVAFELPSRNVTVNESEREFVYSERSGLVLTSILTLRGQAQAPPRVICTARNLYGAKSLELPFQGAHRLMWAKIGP
Protocol: as §2, §3

[7] = target: T6, human Siglec-15 Fc fusion protein (human, UniProt Q6ZMC9 20-263, limits assumed); assay: as above
T6 construct: Recombinant IgG-Fc fusion, coated at 0.2 µg/mL; not shown: IgG-Fc
T6 sequence (looked up): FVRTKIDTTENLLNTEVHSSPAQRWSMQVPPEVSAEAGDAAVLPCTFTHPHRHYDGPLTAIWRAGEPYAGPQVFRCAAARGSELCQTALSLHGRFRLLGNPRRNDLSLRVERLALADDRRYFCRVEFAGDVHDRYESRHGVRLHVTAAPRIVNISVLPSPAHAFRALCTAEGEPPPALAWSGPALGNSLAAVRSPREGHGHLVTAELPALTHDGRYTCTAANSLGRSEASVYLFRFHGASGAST
Protocol: as §2, §3

B1: AI-071 fusion protein (Fc fusion)
chain: STSNSGLAPNPTSTSNSGLAPNPTSTSNSGLAPNPTSTSNSGLAPNPTSTSNSGLAPNPT[human IgG1 Fc skipped]
notes: Disulfide-linked homodimer; Used biotin-labeled in the Siglec panel ELISA; also called AI-071 Fc-fusion protein; AI-71
fold higher Siglec10 binding affinity than control Fc protein [1]: > 10 fold
Kd [2]: 30 nM
koff [2]: 0.000125 s⁻¹
kon [2]: 4160 M⁻¹ s⁻¹
binding result [3]: binds
binding result [4]: binds
binding result [5]: binds
binding result [6]: binds
binding result [7]: binds
